# According to paper PMC12040169 (PLOS Biology, 2025):
# This is one part of the list.
# Tested on: T1, C. trachomatis L2/434/Bu expressing GFP (CTL2-GFP)
# T1 construct: L2/434/Bu GFP intracellular growth in HeLa cells
# Parameters: species or system HeLa; C. trachomatis total inclusion area by high-content imaging, normalised to DMSO
# Conditions: total inclusion area; 28.5 h, 10 µM; inhibitor
# How it was run: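 Following bulk GFP and resorufin fluorescence reads, infected cells were fixed, Hoechst-stained and imaged on a high-content platform. Inclusion total area and number per well served as growth proxies; nuclei counts indicated host viability. MICs were derived as for the fluorescence assay.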
row,SMILES,% of control remaining
1,CCN(CC)C(=O)c1sc(NC(=O)c2cc(-c3ccncc3)nc3c(C)cccc23)c(C#N)c1C [CBK267771],107.691
2,O=C(Nc1ccc2cc(Br)cnc2n1)c1ccccc1[N+](=O)[O-] [CBK063253],82.7891
3,O=c1ccc2ccc(-c3cccc(C(F)(F)F)c3)nc2[nH]1 [CBK073717],98.6433
4,FC(F)(F)Oc1ccc(-c2cc(Nc3ccc(N4CCOCC4)cc3)ncn2)cc1 [CBK090934],146.811
5,CCCn1c(SCC(=O)Nc2scc(CC(C)C)c2C(=O)OCC)n[nH]c1=O [CBK295615],95.8262
6,O=C(CSC1c2ccccc2Oc2ccccc21)Nc1ccccc1C(=O)O [CBK266499],135.589
7,CCCN1CC2(CCN(Cc3nccn3C)CC2)CC1C(=O)O (stereo not drawn) [CBK307658],95.2454
8,COC(=O)c1cc(C)sc1NC(=S)Nc1ccn(Cc2ccc(Br)cc2)n1 [CBK266934],101.734
9,COc1ccc(C2C(C(=O)c3ccco3)=C(O)C(=O)N2CCN2CCOCC2)cc1OC (stereo not drawn) [CBK264544],112.44
10,CC(Cn1cccn1)NC(=O)N1CCN(Cc2ccc(F)cc2)CC1 (stereo not drawn) [CBK306948],80.3437
11,CCNC(=O)[C@H]1CC[C@]2(CC1)CNC(=O)c1cc(Cl)ccc1O2 [CBK284890],103.772
12,CC(C)(C)c1csc(NC(=O)C2CC(=O)N(Cc3cccs3)C2)n1 (stereo not drawn) [CBK175547],84.743
13,CN1CCN(CCCNC(=O)N(CCC#N)C2CCCCC2)CC1 [CBK156346],111.707
14,COc1ccc([C@H]2CN(Cc3ccccc3)[C@@H]3CCN(C(=O)Cc4ccsc4)C[C@H]23)cc1 [CBK285551],49.2157
15,O=C(O)CCCCc1nn(-c2ccc(Cl)c(Cl)c2)c2c1CCC2 [CBK012529],69.2004
16,COCCCOc1nc2ccccc2nc1NC(C)C [CBK115737],86.7384
17,CC(Oc1ccc(Cl)cc1Cl)C(=O)Nc1ccc(N2CCN(C)CC2)cc1 (stereo not drawn) [CBK266780],121.263
18,COc1cccc(NC(=O)CSCc2n[nH]c(=O)[nH]2)c1 [CBK266058],103.16
19,CC(C)C(=O)N1C[C@@H](N(C)C)[C@H](c2cn(C)c3ccccc23)C1 [CBK282717],100.037
20,Cc1cc(NC(=O)CN2CCN(c3ccccc3)CC2)c2ccccc2n1 [CBK278322G],82.6381
21,Cc1nc(-c2ccsc2)sc1C(=O)NC1CCCN(c2ncccn2)C1 (stereo not drawn) [CBK305632],48.0168
